From paper PMC10907753, “Structural insights into Xanthomonas campestris pv. campestris NAD^+ biosynthesis via the NAM salvage pathway” (Communications Biology, 2024)

Biological target: the molecule itself
Test: SEC; analytical gel filtration, Superdex 200 Increase 10/300 GL, 16 °C, 20 mM Tris-HCl pH 8.0, 150 mM NaCl; apparent molecular weight against protein standards

B1: Xanthomonas campestris pv. campestris nicotinamide phosphoribosyltransferase (Xcc NAMPT), wild type (enzyme)
chain: not shown
notes: also called XC_0719; NadV; source: E. coli BL21(DE3), purified (Ni-NTA, anion exchange, gel filtration)
With B1 the “stoichiometry N” value was 2.
